Measured values from the antibiotic and cytotoxicity screens of Wong et al. (2023).
Some of the results follow.

These molecules were tested on S. aureus RN4220 (assay: growth inhibition call (relative growth <= 0.2)). Details: 50 µM.

Growth inhibition call, inactive:
Cc1ccc(S[C@]2(C(=O)O)CC(=O)N(Cc3cc(C(F)(F)F)cc(C(F)(F)F)c3)[C@@H]2c2ccc(CO)cc2)cc1, COc1ccc(NC(=O)N(C)C[C@H]2Oc3ccc(NC(=O)CCN4CCOCC4)cc3C(=O)N([C@@H](C)CO)C[C@@H]2C)cc1, COc1ccc(S(=O)(=O)Nc2ccc3c(c2)CC(=O)N([C@H](C)CO)C[C@@H](C)[C@H](CN(C)C(=O)NC(C)C)O3)cc1, CCCN(C)C[C@@H]1OCCCC[C@@H](C)Oc2ccc(NC(=O)C3CCCCC3)cc2C(=O)N([C@H](C)CO)C[C@@H]1C, C[C@H](CO)N1C[C@H](C)[C@@H](CN(C)C)Oc2cc(C#CCN(C)C)ccc2S1(=O)=O, C[C@@H]1CN([C@@H](C)CO)C(=O)c2cc(NC(=O)NC3CCCCC3)ccc2O[C@@H](C)CCCCO[C@H]1CN(C)Cc1ccc(C(F)(F)F)cc1, C[C@H]1CN([C@@H](C)CO)S(=O)(=O)c2ccc(C#CC3(O)CCCC3)cc2O[C@@H]1CN(C)C(=O)Nc1ccc(F)cc1, Cc1noc(C)c1S(=O)(=O)N(C)C[C@H]1Oc2ccc(NC(=O)CCC(F)(F)F)cc2CC(=O)N([C@H](C)CO)C[C@@H]1C, COCCNC(=O)C[C@H]1CC[C@H](NS(=O)(=O)c2ccc(C)cc2)[C@H](CO)O1, O=C(C[C@H]1C[C@H]2c3cc(NS(=O)(=O)c4ccc(F)cc4)ccc3O[C@H]2[C@H](CO)O1)NC1CCCC1, COc1ccc(NC(=O)Nc2ccc3c(c2)C(=O)N([C@H](C)CO)C[C@H](C)[C@@H](CN(C)Cc2ccc(Cl)c(Cl)c2)O3)cc1, C[C@H]1CCCCO[C@@H](CN(C)C(=O)C2CCCCC2)[C@@H](C)CN([C@@H](C)CO)C(=O)c2cc(NS(=O)(=O)c3ccccc3)ccc2O1, C[C@@H]1CN([C@@H](C)CO)C(=O)Cc2cc(NC(=O)Cc3cn(C)c4ccccc34)ccc2O[C@H]1CN(C)CC1CCCCC1, Cl.NCCCCCC(=O)O, COc1ccc2c3c([nH]c2c1)[C@@H](CO)N(C[C@]13CCN(CC1)S(=O)(=O)c1ccccc1)C(=O)c1cnccn1, COc1ccc(S(=O)(=O)Nc2ccc3c(c2)CC(=O)N([C@H](C)CO)C[C@@H](C)[C@@H](CN(C)S(=O)(=O)c2ccc(F)cc2)O3)cc1, CCCNC(=O)C[C@H]1CC[C@@H]2[C@@H](COc3ccc(NS(=O)(=O)c4ccccc4C)cc3C(=O)N2C)O1, O=C(NCCN1CCCC1)[C@H]1[C@H](CO)[C@H]2Cn3c(cccc3=O)[C@@H]1N2C(=O)NC1CCCC1, COC(=O)C[C@H]1CC[C@H]2[C@@H](COC[C@H](O)CN2S(=O)(=O)c2ccccc2C)O1, C[C@@H]1CN([C@@H](C)CO)C(=O)c2cc(NC(=O)Nc3ccc(F)cc3)ccc2O[C@H]1CN(C)Cc1ccc(Cl)c(Cl)c1, COc1ccc(CN(C)C[C@@H]2Oc3c(NS(=O)(=O)c4cn(C)cn4)cccc3C(=O)N([C@@H](C)CO)C[C@H]2C)cc1, C[C@@H]1CN([C@H](C)CO)C(=O)c2cc(NC(=O)Cc3ccccc3)ccc2O[C@@H](C)CCCCO[C@@H]1CN(C)C(=O)C1CCCCC1, Cc1noc(C)c1NC(=O)Nc1ccc2c(c1)C(=O)N([C@H](C)CO)C[C@H](C)[C@H](CN(C)C(=O)Nc1cccc3ccccc13)OCCCC[C@@H](C)O2, Cc1ccc(S(=O)(=O)Nc2ccc3c(c2)C(=O)N([C@H](C)CO)C[C@H](C)[C@@H](CN(C)S(=O)(=O)c2cccs2)O3)cc1, COc1ccc(S(=O)(=O)N(C)C[C@H]2OCCCC[C@H](C)Oc3ccc(NS(C)(=O)=O)cc3C(=O)N([C@@H](C)CO)C[C@@H]2C)cc1, C[C@H]1CC/C=C\[C@H]2O[C@@]34C=CCN(c5ccc6ccccc6c5)C(=O)[C@H]3N(CCO)C(=O)[C@@H]4[C@@H]2C(=O)O1, C[C@@H]1CN([C@@H](C)CO)C(=O)c2cc(-c3ccncc3)cnc2O[C@@H]1CN(C)S(=O)(=O)c1ccccc1, NCC[C@@H]1CC[C@@H](NC(=O)Cc2ccncc2)[C@@H](CO)O1
